# The other results are listed elsewhere or left out.
# B1: Calsepa (Calystegia sepium), P93114 (protein)
# chain: MAVPMDTISGPWGNNGGNFWSFRPVNKINQIVISYGGGGNNPIALTFSSTKADGSKDTITVGGGGPDSITGTEMVNIGTDEYLTGISGTFGIYLDNNVLRSITFTTNLKAHGPYGQKVGTPFSSANVVGNEIVGFLGRSGYYVDAIGTYNRHK
# Assays:
# Assay in all cases: glycan array binding signal (z-score within array); higher = stronger binding
# Settings in all cases: glycan notation: IUPAC condensed, linker removed
# [1] = molecular target: Gal(b1-4)GlcNAc(b1-3)Gal(b1-4)GlcNAc(b1-3)Gal(b1-4)GlcNAc
# Outline: (§1)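 From the Consortium for Functional Glycomics database, 3228 arrays were curated, keeping only those whose protein sequence was available. Binding is given as a within-array Z-score averaged across arrays sharing a protein sequence and across linkers. Negative Z-scores can be read as non-binding.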
# [2] = molecular target: Gal(b1-4)GlcNAc(b1-3)Gal(b1-4)[Fuc(a1-3)GlcNAc(b1-6)]Gal(b1-4)Glc
# Outline: as §1
# [3] = molecular target: Gal(b1-4)GlcNAc(b1-3)Gal(b1-4)[Fuc(a1-3)]GlcNAc(b1-3)Gal(b1-4)[Fuc(a1-3)]GlcNAc
# Outline: as §1
# [4] = molecular target: Gal(b1-4)GlcNAc(b1-3)GalNAc
# Outline: as §1
# [5] = molecular target: Gal(b1-4)GlcNAc(b1-3)[Gal(b1-4)GlcNAc(b1-6)]Gal(b1-4)GlcNAc
# Outline: as §1
# [6] = molecular target: Gal(b1-4)GlcNAc(b1-3)[Gal(b1-4)GlcNAc(b1-6)]GalNAc
# Outline: as §1
# [7] = molecular target: Gal(b1-4)GlcNAc(b1-3)[GlcNAc(b1-6)]Gal(b1-4)GlcNAc
# Outline: as §1
# [8] = molecular target: Gal(b1-4)GlcNAc(b1-6)Gal(b1-4)GlcNAc
# Outline: as §1
# [9] = molecular target: Gal(b1-4)GlcNAc(b1-6)Gal(b1-4)GlcNAc(b1-6)GalNAc
# Outline: as §1
# [10] = molecular target: Gal(b1-4)GlcNAc(b1-6)GalNAc
# Outline: as §1
# [11] = molecular target: Gal(b1-4)GlcNAc(b1-6)[Gal(b1-3)]GalNAc
# Outline: as §1
# Gal(b1-4)GlcNAc6P = molecular target: Gal(b1-4)GlcNAc6P
# Outline: as §1
# Gal(b1-6)Gal = molecular target: Gal(b1-6)Gal
# Outline: as §1
# Gal3S(b1-3)GalNAc = molecular target: Gal3S(b1-3)GalNAc
# Outline: as §1
# Gal3S(b1-3)GlcNAc = molecular target: Gal3S(b1-3)GlcNAc
# Outline: as §1
# [12] = molecular target: Gal3S(b1-3)[Fuc(a1-4)]GlcNAc
# Outline: as §1
# Gal3S(b1-4)Glc = molecular target: Gal3S(b1-4)Glc
# Outline: as §1
# Gal3S(b1-4)Glc6S = molecular target: Gal3S(b1-4)Glc6S
# Outline: as §1
# Gal3S(b1-4)GlcNAc = molecular target: Gal3S(b1-4)GlcNAc
# Outline: as §1
# Gal3S(b1-4)GlcNAc6S = molecular target: Gal3S(b1-4)GlcNAc6S
# Outline: as §1
# [13] = molecular target: Gal3S(b1-4)[Fuc(a1-3)]Glc
# Outline: as §1
# [14] = molecular target: Gal3S(b1-4)[Fuc(a1-3)]Glc6S
# Outline: as §1
# Gal3S4S(b1-4)GlcNAc = molecular target: Gal3S4S(b1-4)GlcNAc
# Outline: as §1
# Gal3S6S(b1-4)GlcNAc = molecular target: Gal3S6S(b1-4)GlcNAc
# Outline: as §1
# Gal3S6S(b1-4)GlcNAc6S = molecular target: Gal3S6S(b1-4)GlcNAc6S
# Outline: as §1
# Gal4S(b1-4)GlcNAc = molecular target: Gal4S(b1-4)GlcNAc
# Outline: as §1
# Gal4S6S(b1-4)GlcNAc = molecular target: Gal4S6S(b1-4)GlcNAc
# Outline: as §1
# Gal6P(b1-4)GlcNAc = molecular target: Gal6P(b1-4)GlcNAc
# Outline: as §1
# Gal6S(b1-3)GlcNAc = molecular target: Gal6S(b1-3)GlcNAc
# Outline: as §1
# Gal6S(b1-3)GlcNAc6S = molecular target: Gal6S(b1-3)GlcNAc6S
# Outline: as §1
# Gal6S(b1-4)Glc = molecular target: Gal6S(b1-4)Glc
# Outline: as §1
# Gal6S(b1-4)Glc6S = molecular target: Gal6S(b1-4)Glc6S
# Outline: as §1
# Gal6S(b1-4)GlcNAc = molecular target: Gal6S(b1-4)GlcNAc
# Outline: as §1
# Gal6S(b1-4)GlcNAc6S = molecular target: Gal6S(b1-4)GlcNAc6S
# Outline: as §1
# GalNAc(a1-3)Gal = molecular target: GalNAc(a1-3)Gal
# Outline: as §1
# GalNAc(a1-3)GalNAc = molecular target: GalNAc(a1-3)GalNAc
# Outline: as §1
# [15] = molecular target: GalNAc(a1-3)GalNAc(b1-3)Gal(a1-4)Gal(b1-4)Glc
# Outline: as §1
# [16] = molecular target: GalNAc(a1-3)GalNAc(b1-3)Gal(a1-4)Gal(b1-4)GlcNAc
# Outline: as §1
# GalNAc(b1-3)Gal = molecular target: GalNAc(b1-3)Gal
# Outline: as §1
# [17] = molecular target: GalNAc(b1-3)Gal(a1-4)Gal(b1-4)GlcNAc
# Outline: as §1
# [18] = molecular target: GalNAc(b1-3)Gal(a1-4)Gal(b1-4)GlcNAc(b1-3)Gal(b1-4)Glc
# Outline: as §1
# [19] = molecular target: GalNAc(b1-3)Gal(a1-6)Gal(b1-4)Glc
# Outline: as §1
# GalNAc(b1-3)GalNAc = molecular target: GalNAc(b1-3)GalNAc
# Outline: as §1
# GalNAc(b1-4)Gal(b1-4)Glc = molecular target: GalNAc(b1-4)Gal(b1-4)Glc
# Outline: as §1
# GalNAc(b1-4)GlcNAc = molecular target: GalNAc(b1-4)GlcNAc
# Outline: as §1
binder,measurement,setting,value
B1,glycan array binding signal (z-score),[1],-0.25
same,glycan array binding signal (z-score),[2],-0.266
same,glycan array binding signal (z-score),[3],-0.254
same,glycan array binding signal (z-score),[4],-0.253
same,glycan array binding signal (z-score),[5],-0.251
same,glycan array binding signal (z-score),[6],-0.269
same,glycan array binding signal (z-score),[7],-0.248
same,glycan array binding signal (z-score),[8],-0.251
same,glycan array binding signal (z-score),[9],-0.129
same,glycan array binding signal (z-score),[10],-0.263
same,glycan array binding signal (z-score),[11],-0.249
same,glycan array binding signal (z-score),Gal(b1-4)GlcNAc6P,-0.27
same,glycan array binding signal (z-score),Gal(b1-6)Gal,-0.269
same,glycan array binding signal (z-score),Gal3S(b1-3)GalNAc,-0.229
same,glycan array binding signal (z-score),Gal3S(b1-3)GlcNAc,-0.263
same,glycan array binding signal (z-score),[12],-0.259
same,glycan array binding signal (z-score),Gal3S(b1-4)Glc,-0.253
same,glycan array binding signal (z-score),Gal3S(b1-4)Glc6S,-0.249
same,glycan array binding signal (z-score),Gal3S(b1-4)GlcNAc,-0.254
same,glycan array binding signal (z-score),Gal3S(b1-4)GlcNAc6S,-0.243
same,glycan array binding signal (z-score),[13],-0.248
same,glycan array binding signal (z-score),[14],-0.266
same,glycan array binding signal (z-score),Gal3S4S(b1-4)GlcNAc,-0.251
same,glycan array binding signal (z-score),Gal3S6S(b1-4)GlcNAc,-0.248
same,glycan array binding signal (z-score),Gal3S6S(b1-4)GlcNAc6S,-0.241
same,glycan array binding signal (z-score),Gal4S(b1-4)GlcNAc,-0.247
same,glycan array binding signal (z-score),Gal4S6S(b1-4)GlcNAc,-0.247
same,glycan array binding signal (z-score),Gal6P(b1-4)GlcNAc,-0.273
same,glycan array binding signal (z-score),Gal6S(b1-3)GlcNAc,-0.268
same,glycan array binding signal (z-score),Gal6S(b1-3)GlcNAc6S,-0.271
same,glycan array binding signal (z-score),Gal6S(b1-4)Glc,-0.25
same,glycan array binding signal (z-score),Gal6S(b1-4)Glc6S,-0.237
same,glycan array binding signal (z-score),Gal6S(b1-4)GlcNAc,-0.251
same,glycan array binding signal (z-score),Gal6S(b1-4)GlcNAc6S,-0.246
same,glycan array binding signal (z-score),GalNAc(a1-3)Gal,-0.245
same,glycan array binding signal (z-score),GalNAc(a1-3)GalNAc,-0.247
same,glycan array binding signal (z-score),[15],-0.271
same,glycan array binding signal (z-score),[16],-0.271
same,glycan array binding signal (z-score),GalNAc(b1-3)Gal,-0.237
same,glycan array binding signal (z-score),[17],-0.247
same,glycan array binding signal (z-score),[18],-0.247
same,glycan array binding signal (z-score),[19],-0.267
same,glycan array binding signal (z-score),GalNAc(b1-3)GalNAc,-0.246
same,glycan array binding signal (z-score),GalNAc(b1-4)Gal(b1-4)Glc,-0.267
same,glycan array binding signal (z-score),GalNAc(b1-4)GlcNAc,-0.243

# Reference: the supplement of paper PMC8728848
